# Laboratory results reported in PubChem BioAssay AID1460 (National Center for Advancing Translational Sciences (NCATS), 2008).
# Out of some 270,000 compounds screened, about 5,800 (2.1%) were called active. Inconclusive results, whose numbers are uncertain, are shown with a selection of clear calls. The call rests on the fitted dose curve; in most records, active means well fitted inhibition curve with a large enough effect; inconclusive means small, poorly fitted or top-dose-only effect; inactive means flat fitted curve, though single readings scatter. A potency beside an inconclusive call is a rough fit, not a confirmed value.
# Molecular target: Microtubule-associated protein tau (Homo sapiens) (UniProt P10636)
# Assay: qHTS for Inhibitors of Tau Fibril Formation, Thioflavin T Binding; further: nearly all actives have a fitted effect of over 55% in size
# Settings: recombinant tau K18 P301L (four-repeat tau fragment), heparin-induced fibrillization, ThT fluorescence; series mostly up to 57.4 µM; activity, negative = inhibition: at the top concentration
# Summary of the method: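 K18 P301L tau (15 uM + 0.24 uM Alexa 594-tagged), heparin 20 uM, NaOAc pH 7, 6 h 37 C; ThT 30 uM, 1 h RT, ex 450/em 510 nm.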
# On the % scale 0 is the no-effect control and ±100 the full control effect; potency means the concentration at half of the fitted maximal effect; tags describe the fitted curve by direction and shape.
# UniProt P10636, sequence (P10636 whole entry, looked up): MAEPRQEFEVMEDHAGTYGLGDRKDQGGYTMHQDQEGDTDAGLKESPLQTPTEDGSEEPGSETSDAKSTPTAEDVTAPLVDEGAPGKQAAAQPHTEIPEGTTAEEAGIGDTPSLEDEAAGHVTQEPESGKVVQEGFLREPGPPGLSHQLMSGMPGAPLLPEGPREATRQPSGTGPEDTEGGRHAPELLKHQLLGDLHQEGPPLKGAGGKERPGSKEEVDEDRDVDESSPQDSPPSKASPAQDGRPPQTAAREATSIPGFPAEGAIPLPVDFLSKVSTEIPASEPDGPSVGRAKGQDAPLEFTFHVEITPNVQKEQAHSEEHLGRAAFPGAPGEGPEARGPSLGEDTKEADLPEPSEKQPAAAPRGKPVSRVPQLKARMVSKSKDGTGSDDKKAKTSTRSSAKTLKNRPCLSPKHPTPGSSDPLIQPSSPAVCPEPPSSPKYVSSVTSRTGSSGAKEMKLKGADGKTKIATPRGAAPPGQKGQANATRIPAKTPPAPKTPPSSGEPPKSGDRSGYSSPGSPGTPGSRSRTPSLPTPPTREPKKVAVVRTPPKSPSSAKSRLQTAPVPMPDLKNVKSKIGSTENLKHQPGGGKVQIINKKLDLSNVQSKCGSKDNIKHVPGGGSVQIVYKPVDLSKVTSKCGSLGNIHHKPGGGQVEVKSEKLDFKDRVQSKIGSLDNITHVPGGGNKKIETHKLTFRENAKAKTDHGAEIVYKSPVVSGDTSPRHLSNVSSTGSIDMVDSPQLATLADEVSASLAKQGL
SMILES,Potency,"activity, negative = inhibition"
COc1ccc(N=C2C(=O)Nc3c(C)cccc32)cc1,"inconclusive: 28.2 µM [inhibitor, partial curve]",
CN(C)c1ccc(/C=C/c2noc(-c3ccccc3O)n2)cc1,"inconclusive: 2.82 µM [inhibitor, full curve]",
COc1cccc(/C=N/Nc2nc(N3CCCC3)nc(N3CCCC3)n2)c1O,"inconclusive: 12.6 µM [inhibitor, partial curve]",
Cc1cccc(OCC(=O)N(Cc2ccc(C(C)(C)C)cc2)Cc2ccco2)c1,"inconclusive: 25.1 µM [inhibitor, single point]",
Fc1cnc(N/N=C/c2ccc(-c3ccc(Br)cc3)o2)nc1N1CCOCC1,active: 10 µM,
Cc1ccc(C(=O)N2CCSCC2)cc1,,inactive: -13.9%
COc1ccc(-c2csc(NC(=O)CSc3nc(C)nc4sc(C(=O)O)c(C)c34)n2)cc1,"inconclusive: 39.8 µM [activator, single point]",
COc1ccc(C2C(C(=O)Nc3cccnc3)=C(C)Nc3nc(-c4ccccc4)nn32)cc1OC (stereo not given),,inactive: -11.9%
Cc1sc2nc(C(C)C)nc(SCC(=O)NCc3ccco3)c2c1C,"inconclusive: 14.1 µM [inhibitor, partial curve, poor fit]",
O=C(Nc1nccs1)C1(S(=O)(=O)c2ccc(Cl)cc2)CC1,"inconclusive: 28.2 µM [inhibitor, partial curve]",
CNC(=S)N/N=C(\C)c1ccc(Cl)s1,,inactive: 5.27%
CCC(CC)c1nn2c(=O)cc(COc3ccc(NC(=O)c4ccc(C)cc4)cc3)nc2s1,"inconclusive: 1.41 µM [inhibitor, full curve]",
CCCOc1ccc(-c2nc(C#N)c(N3CCN(CC)CC3)o2)cc1,"inconclusive: 31.6 µM [inhibitor, single point]",
COc1ccc(Br)cc1/C=N/Nc1ccc(Cl)c(C(=O)O)c1,"inconclusive: 8.91 µM [inhibitor, partial curve]",
COc1ccc(SCCC(=O)NCc2ccncc2)cc1,,inactive: -13.2%
Cc1cc(C(=O)CSc2nncs2)c(C)n1Cc1ccco1,,inactive: -13.1%
CCOc1cc(/C=N/Nc2nncc(-c3ccccc3)n2)ccc1O,"inconclusive: 2.82 µM [inhibitor, full curve]",
C[C@H]([C@H](C)N1CC(=O)NC(=O)C1)N1CC(=O)NC(=O)C1,"inconclusive: 0.794 µM [inhibitor, partial curve]",
O=C(CC1NCCNC1=O)Nc1ccc2c(c1)OCO2 (stereo not given),,inactive: -4.1%
C=CCNC(=S)Nc1nc2c(cc1C(=O)OCC)COC(C)(C)C2,,inactive: -14.3%
COC(=O)c1ccc(C(=O)OC)c(NC(=S)N2CCN(c3ccccc3)CC2)c1,"inconclusive: 15.8 µM [inhibitor, partial curve]",
Cc1ccc2sc(C)[n+](CCO)c2c1,"inconclusive: 15.8 µM [inhibitor, partial curve]",
CCCOc1ccc(CCC(=O)N/N=C/c2ccco2)cc1,"inconclusive: 22.4 µM [inhibitor, partial curve]",
CCN1C(=O)/C(=C/c2nc3ccccc3c(=O)[nH]2)c2ccccc21,"inconclusive: 10 µM [inhibitor, partial curve]",

SMILES,Potency,"activity, negative = inhibition"
Cc1cc(F)ccc1NCc1ccccc1[N+](=O)[O-],"inconclusive: 25.1 µM [inhibitor, single point]",
Cc1nccc(-c2cccc(N/N=C(\C#N)C(=O)c3ccccc3)c2)n1,active: 8.91 µM,
COc1cccc(C2CC(c3c(Cl)cccc3Cl)n3nc(N)nc3N2)c1 (stereo not given),"inconclusive: 25.1 µM [inhibitor, partial curve]",
Cc1cc(C)c2nc(N(Cc3cccnc3)C(=O)c3ccc(S(=O)(=O)N(C)C)cc3)sc2c1,,inactive: -2.49%
CC1=CC(c2ccc(Cl)cc2)n2nc(NS(=O)(=O)c3ccc(C)cc3)nc2N1 (stereo not given),"inconclusive: 44.7 µM [inhibitor, partial curve]",
CCc1cc2c(cc3c(=O)n(CC(=O)NCCCN4CC(C)CC(C)C4)ncn32)s1 (stereo not given),,inactive: -12.2%
Cc1ccc(-c2cc(C(=O)N/N=C/c3c(C)nn(-c4ccccc4)c3C)n[nH]2)s1,"inconclusive: 0.562 µM [inhibitor, full curve]",
O=C(/C(=N\Nc1ccc([N+](=O)[O-])cc1)Sc1nnnn1-c1ccccc1)c1ccccc1,"inconclusive: 20 µM [inhibitor, partial curve]",
S=c1[nH]nc(COc2ccccc2)n1/N=C/C=C/c1ccccc1,"inconclusive: 8.91 µM [inhibitor, partial curve]",
COc1cc(C2C(C(=O)OCC(C)C)=C(C)N=C3SCCC(=O)N32)ccc1OCc1ccccc1 (stereo not given),,inactive: -5.28%
Oc1ccc(/C=C/c2ccc3ccccc3n2)cc1,"inconclusive: 0.562 µM [inhibitor, full curve]",
N#CC1=C(N)N(c2ccccc2C#N)C2=C(C(=O)CCC2)C1c1ccsc1 (stereo not given),"inconclusive: 12.6 µM [inhibitor, partial curve, poor fit]",
CN(C)Cc1c(O)ccc2ccccc12,"inconclusive: 12.6 µM [inhibitor, partial curve]",
COc1ccccc1NC(=S)N=Nc1c(O)[nH]c2ccc(Br)cc12,"inconclusive: 2.51 µM [inhibitor, partial curve]",
Cc1cccc(N2CCN(C(=O)Cc3c(C(=O)O)[nH]c4ccc(Cl)cc34)CC2)c1C,"inconclusive: 20 µM [inhibitor, single point]",
CCOc1cc(C(=O)Nc2c3c(nn2C(C)(C)C)CS(=O)C3)cc(OCC)c1OCC (stereo not given),"inconclusive: 3.98 µM [inhibitor, single point]",
CCN1C(=O)/C(=C/N(C(C)=O)c2ccccc2)N(c2ccccc2)C1=S,"inconclusive: 11.2 µM [inhibitor, partial curve]",
S=C(c1ccc(-c2ccc(Cl)cc2Cl)o1)N1CCCCC1,"inconclusive: 20 µM [inhibitor, partial curve]",
CC(=O)NNC(=S)NC(=O)c1ccc(C)cc1,"inconclusive: 10 µM [inhibitor, partial curve]",
Cc1ccc(S(=O)(=O)N2CCN(Cc3noc(CCC(=O)N4CCCCC4)n3)CC2)c(C)c1,,inactive: 1.81%
Fc1ccc(C2c3cccn3CCN2C(=S)Nc2cccc(Br)c2)cc1 (stereo not given),"inconclusive: 39.8 µM [inhibitor, single point]",
COc1cccc(NC(=O)Cn2c(=O)n(-c3ccc(Cl)cc3)c(=O)c3oc4ccccc4c32)c1,"inconclusive: 31.6 µM [activator, single point]",
CCOC(=O)N1CCN(C(=O)CSc2cc(C)nc3c(-c4ccccc4OC)c(C)nn23)CC1,,inactive: -11.9%
CC(C)C(=O)N1c2ncnn2C2(CCCCC2)[C@@H]2CCCC[C@@H]21,,inactive: -2.22%

SMILES,Potency,"activity, negative = inhibition"
COc1ccc2oc(-c3cccc(NC(=O)c4ccc(C#N)cc4F)c3)nc2c1,,inactive: 7.59%
CCCCNC(=O)c1ccc2c(c1)NC(=O)C(CS(=O)(=O)Cc1cccc(C)c1)N2 (stereo not given),active: 17.8 µM,
CCCCNc1ncnc2c1nnn2C,,inactive: 2.7%
CCN1CCN(c2oc(-c3ccc(COc4ccc(C)cc4)o3)nc2C#N)CC1,"inconclusive: 35.5 µM [inhibitor, single point]",
CCOc1cc(CNCCSc2nnnn2C)cc(Br)c1OCc1ccccc1,"inconclusive: 39.8 µM [inhibitor, single point]",
CCCNc1[nH]c(=O)n(C)c(=O)c1N=O,,inactive: -3.68%
Cc1c(C(=O)Nc2cccc(C(F)(F)F)c2)sc2nc3n(c(=O)c12)CCCC3,"inconclusive: 25.1 µM [inhibitor, partial curve]",
Cc1cc(O)cc(O)c1C(=O)OC1(C)C(=O)C=C2C=C(/C=C/CO)OC=C2C1=O (stereo not given),"inconclusive: 28.2 µM [inhibitor, partial curve]",
O=C(CSc1ncc(-c2ccccc2)n1-c1ccccc1)NCc1ccco1,"inconclusive: 39.8 µM [inhibitor, single point]",
CCN1CCN(c2cc3c(cc2F)c(=O)c(S(=O)(=O)c2ccc(OC)cc2)cn3CC)CC1,,inactive: -6.09%
CC(C)=NO[C@@H](C)CN1CCCCc2nc(C)c(C)cc21,,inactive: 3.58% [at 11.5 µM]
CSc1nc(SCC(N)=O)c2c3c(sc2n1)CN(C)CC3,"inconclusive: 28.2 µM [inhibitor, single point]",
COc1cc(-c2cc(=O)c3c(O)cc(O)cc3o2)ccc1O,"inconclusive: 22.4 µM [inhibitor, single point]",
COc1ccc(C(=O)N=c2nc3ccccn3s2)cc1,"inconclusive: 2.82 µM [inhibitor, partial curve]",
COc1cc2nc(/C=C/c3cc(OC)c(OC)c(OC)c3)sc2cc1SC,"inconclusive: 7.94 µM [inhibitor, partial curve]",
COc1cc(/C=C2\CCc3c2nc2ccccc2c3C(=O)O)cc(OC)c1OC,"inconclusive: 25.1 µM [inhibitor, single point]",
O=[N+]([O-])c1cc(Cl)cc2c1nc(NCCO)c1ccccc12,"inconclusive: 20 µM [inhibitor, partial curve, poor fit]",
COCCCNC(=O)c1sc2nc3n(c(=O)c2c1C)CCC3,"inconclusive: 14.1 µM [inhibitor, partial curve]",
Cc1nc2ccc(S(=O)(=O)CCC(=O)Nc3ccc(C)c(C)c3)cc2s1,,inactive: -4.13%
CCOC(=O)c1c(-c2ccccc2)csc1NC(=O)c1cc(-c2ccc(Br)cc2)on1,"inconclusive: 31.6 µM [inhibitor, single point]",
COc1ccccc1/C=C/C1=NC(=C\C=C/c2ccccc2)/C(=O)O1,active: 11.2 µM,
CCOc1cc(C2C3=C(CC(C)(C)CC3=O)OC3=C2C(=O)CC(C)(C)C3)cc([N+](=O)[O-])c1O,"inconclusive: 39.8 µM [inhibitor, single point]",
